In paper PMC5153247:
No constants are given. Whether binding was seen depends on the method and setting. In cells and extracts the contact can be indirect. Some results given as binding are weak or reduced against the parent protein; the word gives no strength. Where a sequence is shown, tags or fusion partners need not be part of it.

Protein sequences, listed by entry. Tags and fused reporters are not part of them. Lines headed by an entry give the natural chain unless they say otherwise; changes in a name come on top. Residues count along the entry.
UniProt P31749: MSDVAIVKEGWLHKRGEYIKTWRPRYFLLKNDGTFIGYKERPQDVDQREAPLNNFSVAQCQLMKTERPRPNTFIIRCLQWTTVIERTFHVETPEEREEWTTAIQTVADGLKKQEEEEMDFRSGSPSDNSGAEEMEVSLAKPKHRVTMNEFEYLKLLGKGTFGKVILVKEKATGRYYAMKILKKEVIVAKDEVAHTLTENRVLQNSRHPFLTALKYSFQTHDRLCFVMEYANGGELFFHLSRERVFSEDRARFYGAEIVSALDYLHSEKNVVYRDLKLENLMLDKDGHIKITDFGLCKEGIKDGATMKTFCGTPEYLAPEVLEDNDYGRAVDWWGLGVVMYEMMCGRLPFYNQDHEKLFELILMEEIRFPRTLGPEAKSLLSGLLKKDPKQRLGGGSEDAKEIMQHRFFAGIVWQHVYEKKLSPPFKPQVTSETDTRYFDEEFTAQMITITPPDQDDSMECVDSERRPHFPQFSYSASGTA
mammalian GST-Akt fragment: PH domain of Akt: residues 5-108 of P31749
UniProt Q9UM11: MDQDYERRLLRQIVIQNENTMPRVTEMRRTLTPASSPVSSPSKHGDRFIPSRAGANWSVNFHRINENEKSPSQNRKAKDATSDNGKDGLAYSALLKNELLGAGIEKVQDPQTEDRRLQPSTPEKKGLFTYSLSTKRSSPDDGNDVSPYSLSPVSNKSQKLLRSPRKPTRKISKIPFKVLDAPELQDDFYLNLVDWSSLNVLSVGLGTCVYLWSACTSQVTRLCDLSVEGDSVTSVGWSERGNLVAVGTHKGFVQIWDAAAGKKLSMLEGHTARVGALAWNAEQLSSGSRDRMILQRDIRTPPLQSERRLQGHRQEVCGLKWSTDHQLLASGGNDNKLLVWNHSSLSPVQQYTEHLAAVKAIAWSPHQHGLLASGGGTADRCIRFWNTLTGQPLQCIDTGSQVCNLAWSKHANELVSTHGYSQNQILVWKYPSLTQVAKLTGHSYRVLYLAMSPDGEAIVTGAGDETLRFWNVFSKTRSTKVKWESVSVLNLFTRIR
UniProt P26043: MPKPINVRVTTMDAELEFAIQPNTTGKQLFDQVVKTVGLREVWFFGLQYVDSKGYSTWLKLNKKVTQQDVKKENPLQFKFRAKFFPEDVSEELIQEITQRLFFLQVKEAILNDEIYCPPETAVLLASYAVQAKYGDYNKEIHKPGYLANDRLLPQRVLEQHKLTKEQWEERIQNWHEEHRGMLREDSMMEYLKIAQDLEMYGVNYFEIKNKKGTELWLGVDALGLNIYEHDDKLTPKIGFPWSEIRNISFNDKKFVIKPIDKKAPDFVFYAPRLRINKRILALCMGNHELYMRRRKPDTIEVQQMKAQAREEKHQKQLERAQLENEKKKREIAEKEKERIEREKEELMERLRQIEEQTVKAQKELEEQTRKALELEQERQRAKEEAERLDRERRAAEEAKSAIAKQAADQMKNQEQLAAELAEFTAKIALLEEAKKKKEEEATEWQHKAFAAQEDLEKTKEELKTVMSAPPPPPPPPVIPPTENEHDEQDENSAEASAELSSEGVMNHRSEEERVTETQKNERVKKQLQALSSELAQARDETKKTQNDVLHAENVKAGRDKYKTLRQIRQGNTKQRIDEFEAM

Legend:
[1] = target: T1, GST-Id2 (expressed in PC12 cells) (UniProt P41136); test: pull-down; PC12 cells transfected with GST-Id2, GFP-cdh1 and increasing amounts of myc-Akt (2 or 4 μg); lysates subjected to GST pull-down
T1 sequence: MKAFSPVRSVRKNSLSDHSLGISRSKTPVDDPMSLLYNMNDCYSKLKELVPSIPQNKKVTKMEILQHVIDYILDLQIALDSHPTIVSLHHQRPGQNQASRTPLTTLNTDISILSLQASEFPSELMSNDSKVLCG

purified GST-Id1 = target: T2, purified GST-Id1 (UniProt P20067); test: pull-down; lysates of PC12 cells transfected with myc-Akt incubated with purified GST-Id proteins and GST-beads for 3 hr at 4°C with gentle agitation; only the target purified
T2 sequence: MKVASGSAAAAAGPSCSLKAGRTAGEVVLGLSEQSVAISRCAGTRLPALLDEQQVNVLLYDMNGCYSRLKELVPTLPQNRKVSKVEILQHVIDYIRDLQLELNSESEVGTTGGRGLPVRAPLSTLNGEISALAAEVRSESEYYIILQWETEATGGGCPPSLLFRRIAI

purified GST-Id3 = target: T3, purified GST-Id3 (UniProt P41133); test: as above
T3 sequence: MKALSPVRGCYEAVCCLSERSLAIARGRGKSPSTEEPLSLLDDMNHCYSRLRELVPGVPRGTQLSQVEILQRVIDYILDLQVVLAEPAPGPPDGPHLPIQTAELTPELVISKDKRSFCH

purified GST-Id4 = target: T4, purified GST-Id4 (UniProt P41139); test: as above
T4 sequence: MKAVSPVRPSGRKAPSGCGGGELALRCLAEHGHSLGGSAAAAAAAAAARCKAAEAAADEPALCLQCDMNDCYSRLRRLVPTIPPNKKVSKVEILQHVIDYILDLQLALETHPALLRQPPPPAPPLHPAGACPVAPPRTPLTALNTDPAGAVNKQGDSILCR

[2] = target: T5, purified glutathione S-transferase (GST)-Id2 protein (UniProt P41136); test: as above
T5 sequence: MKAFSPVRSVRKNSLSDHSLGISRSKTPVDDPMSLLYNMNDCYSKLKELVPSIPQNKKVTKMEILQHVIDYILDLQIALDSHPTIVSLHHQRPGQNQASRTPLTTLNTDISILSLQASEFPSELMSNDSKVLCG

Flag-Akt1 = Flag-Akt1 (UniProt P31749); test: co-IP; Flag-Akt1, 2 or 3 transfected into HEK293T cells together with GFP-Id2; anti-Flag IP followed by IB
HA-Cdh1 = HA-Cdh1 (UniProt Q9UM11); test: co-IP; HA-cdh1 co-transfected with GFP-Id2 WT or mutants into 293T cells (legend; text says PC12); IP with HA antibody, Id2 detected by anti-GFP antibody
HA-E47 = target: T6, HA-E47 (UniProt P15923); test: co-IP; HA-E47 co-transfected with GFP-Id2 WT or mutants into PC12 cells; immunoprecipitation with anti-HA antibody
T6 sequence: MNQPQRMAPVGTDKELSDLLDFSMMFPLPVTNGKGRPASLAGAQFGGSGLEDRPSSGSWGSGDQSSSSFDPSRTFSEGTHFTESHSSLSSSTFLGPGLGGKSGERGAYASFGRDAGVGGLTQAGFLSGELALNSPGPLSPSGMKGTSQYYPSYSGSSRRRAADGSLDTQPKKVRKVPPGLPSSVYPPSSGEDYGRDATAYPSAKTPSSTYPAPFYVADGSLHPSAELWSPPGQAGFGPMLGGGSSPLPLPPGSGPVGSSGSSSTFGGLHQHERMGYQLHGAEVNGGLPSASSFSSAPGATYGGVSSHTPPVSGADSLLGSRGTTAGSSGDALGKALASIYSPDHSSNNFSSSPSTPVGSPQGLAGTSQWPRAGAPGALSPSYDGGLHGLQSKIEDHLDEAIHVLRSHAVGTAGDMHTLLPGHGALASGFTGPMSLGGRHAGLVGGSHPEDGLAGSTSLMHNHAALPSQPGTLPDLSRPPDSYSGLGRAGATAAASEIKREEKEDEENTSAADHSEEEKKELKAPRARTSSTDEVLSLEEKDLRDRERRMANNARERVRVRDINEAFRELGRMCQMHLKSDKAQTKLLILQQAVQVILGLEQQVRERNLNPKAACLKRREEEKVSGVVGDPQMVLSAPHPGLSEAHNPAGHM

GST-radixin = GST-radixin (UniProt P26043); test: pull-down; GST pull-down using lysates of PC12 cells transfected with GST-radixin and Id2 constructs (called in vitro binding assay); also with depletion of Akt by shRNA
[3] = target: mammalian GST-Akt fragment: PH domain of Akt (UniProt P31749); test: pull-down; Flag-Id2 co-transfected with mammalian GST-Akt fragments into 293T cells; lysates subjected to GST pull-down and IB

myc-Akt (from UniProt P31749 1-480) (enzyme)
binding [1]: binds
binding (purified GST-Id1): binds
binding (purified GST-Id3): binds
binding (purified GST-Id4): binds
binding [2]: binds

GFP-Cdh1 (from UniProt Q9UM11 1-496)
binding [1]: binds

B1: GFP-Id2 WT (HEK293T) (protein, UniProt P41136 1-134)
chain: MKAFSPVRSVRKNSLSDHSLGISRSKTPVDDPMSLLYNMNDCYSKLKELVPSIPQNKKVTKMEILQHVIDYILDLQIALDSHPTIVSLHHQRPGQNQASRTPLTTLNTDISILSLQASEFPSELMSNDSKVLCG
binding (Flag-Akt1): binds
binding (HA-Cdh1): binds weakly

B2: GFP-Id2 S14D (293T) (protein, UniProt P41136 1-134)
chain: MKAFSPVRSVRKNDLSDHSLGISRSKTPVDDPMSLLYNMNDCYSKLKELVPSIPQNKKVTKMEILQHVIDYILDLQIALDSHPTIVSLHHQRPGQNQASRTPLTTLNTDISILSLQASEFPSELMSNDSKVLCG
binding (HA-Cdh1): binds weakly

B3: GFP-Id2 S14A (293T) (protein, UniProt P41136 1-134)
chain: MKAFSPVRSVRKNALSDHSLGISRSKTPVDDPMSLLYNMNDCYSKLKELVPSIPQNKKVTKMEILQHVIDYILDLQIALDSHPTIVSLHHQRPGQNQASRTPLTTLNTDISILSLQASEFPSELMSNDSKVLCG
binding (HA-Cdh1): binds

B4: GFP-Id2 WT (PC12) (protein, UniProt P41136 1-134)
chain: MKAFSPVRSVRKNSLSDHSLGISRSKTPVDDPMSLLYNMNDCYSKLKELVPSIPQNKKVTKMEILQHVIDYILDLQIALDSHPTIVSLHHQRPGQNQASRTPLTTLNTDISILSLQASEFPSELMSNDSKVLCG
binding (HA-E47): binds
binding (GST-radixin): binds

B5: GFP-Id2 S14A (PC12) (protein, UniProt P41136 1-134)
chain: MKAFSPVRSVRKNALSDHSLGISRSKTPVDDPMSLLYNMNDCYSKLKELVPSIPQNKKVTKMEILQHVIDYILDLQIALDSHPTIVSLHHQRPGQNQASRTPLTTLNTDISILSLQASEFPSELMSNDSKVLCG
binding (HA-E47): binds

B6: GFP-Id2 S14D (PC12) (protein, UniProt P41136 1-134)
chain: MKAFSPVRSVRKNDLSDHSLGISRSKTPVDDPMSLLYNMNDCYSKLKELVPSIPQNKKVTKMEILQHVIDYILDLQIALDSHPTIVSLHHQRPGQNQASRTPLTTLNTDISILSLQASEFPSELMSNDSKVLCG
binding (HA-E47): binds

B7: Flag-Id2 (protein, UniProt P41136 1-134)
chain: MKAFSPVRSVRKNSLSDHSLGISRSKTPVDDPMSLLYNMNDCYSKLKELVPSIPQNKKVTKMEILQHVIDYILDLQIALDSHPTIVSLHHQRPGQNQASRTPLTTLNTDISILSLQASEFPSELMSNDSKVLCG
binding [3]: binds

B8: Id2-P51S (HLH domain mutant) (protein, UniProt P41136 1-134)
chain: MKAFSPVRSVRKNSLSDHSLGISRSKTPVDDPMSLLYNMNDCYSKLKELVSSIPQNKKVTKMEILQHVIDYILDLQIALDSHPTIVSLHHQRPGQNQASRTPLTTLNTDISILSLQASEFPSELMSNDSKVLCG
binding (HA-E47): no binding

B9: Id2-V68P (HLH domain mutant) (protein, UniProt P41136 1-134)
chain: MKAFSPVRSVRKNSLSDHSLGISRSKTPVDDPMSLLYNMNDCYSKLKELVPSIPQNKKVTKMEILQHPIDYILDLQIALDSHPTIVSLHHQRPGQNQASRTPLTTLNTDISILSLQASEFPSELMSNDSKVLCG
binding (HA-E47): no binding
